# Several values for one entry are separate records, joined by “and”; a condition that tells them apart may be missing. Equal values may be shown once. Among all 390,000 compounds or so, about 1,400 (0.36%) were called active. Inconclusive results, whose numbers are uncertain, are shown with a selection of clear calls. Calls follow the shape of the dose curve; as a rule, active = well fitted inhibition curve with a large enough effect; inconclusive = small, poorly fitted or top-dose-only effect; inactive = no such curve, though single readings can be large or run the other way. Potencies of inconclusive entries are doubtful fits and often do not repeat.
# Target: Flap endonuclease 1 (Homo sapiens) (UniProt P39748)
# Assay: qHTS Assay for the Inhibitors of Human Flap endonuclease 1 (FEN1). Also: nearly all actives have a fitted effect of over 65% in size.
# Conditions: Recombinant FEN1 flap cleavage, fluorescence, 15 min; series mostly up to 114 µM; activity change, negative = inhibition: at the top concentration
# How it was run: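 Reaction started by adding substrate (50 nM final) to 10 nM enzyme after 15 min room-temperature compound preincubation. Reads at 0 and 15 min, with data normalized and fitted to a four-parameter Hill equation.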
# % is scaled to controls: 0 for no effect and ±100 for the full control effect; potency is read from the fitted curve at half-maximal effect; tags tell the direction and shape of the fitted curve.
# Chain of UniProt P39748 (P39748 whole entry, looked up): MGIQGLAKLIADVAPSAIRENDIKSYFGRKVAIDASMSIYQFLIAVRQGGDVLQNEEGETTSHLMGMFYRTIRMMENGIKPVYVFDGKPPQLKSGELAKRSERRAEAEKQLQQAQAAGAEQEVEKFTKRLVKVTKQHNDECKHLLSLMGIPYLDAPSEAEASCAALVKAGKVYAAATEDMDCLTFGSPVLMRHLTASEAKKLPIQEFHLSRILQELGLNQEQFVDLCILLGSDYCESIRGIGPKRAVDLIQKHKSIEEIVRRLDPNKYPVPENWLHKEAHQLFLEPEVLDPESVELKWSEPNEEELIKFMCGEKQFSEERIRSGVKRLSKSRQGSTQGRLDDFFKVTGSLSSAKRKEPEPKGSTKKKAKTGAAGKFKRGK
SMILES,Potency,"activity change, negative = inhibition"
NS(=O)(=O)c1ccc(N=Nc2c(O)c(C(=O)O)cc3ccccc23)cc1,"inconclusive: 14.1 µM [inhibitor, full curve, poor fit]",–
COc1ccc2c(c1)CCc1c(C(=O)Nc3c(C)nn(Cc4c(Cl)cccc4Cl)c3C)noc1-2,–,inactive: 12.3%
Cc1cc2oc3ccc(NCCC4CCCN4C)cc3c(=O)c2cc1C (configuration not stated),"inconclusive: 35.5 µM [inhibitor, partial curve]",–
CC(C(=O)NCc1cccc(Br)c1)n1ncn2cccc2c1=O (configuration not stated),"inconclusive: 56.2 µM [inhibitor, partial curve, poor fit]",–
COc1ccc(OC)c(/C(O)=C/C(=O)C(=O)Nc2cc(C)ccc2OC)c1,"inconclusive: 35.5 µM [inhibitor, full curve]",–
Nc1nc(N)c(-c2cccc(C(F)(F)F)c2)c(Cc2cccc(C(F)(F)F)c2)n1,"inconclusive: 89.1 µM [inhibitor, partial curve, poor fit]",–
Cc1cccc(OCCCSc2nc(-c3ccc(C(C)(C)C)cc3)nc3cc(=O)[nH]n23)c1C,"inconclusive: 39.8 µM [inhibitor, partial curve, poor fit]",–
CCOc1ccc(NC(=O)Cn2sc3nc(C)cc(C)c3c2=O)cc1,active: 89.1 µM,–
c1ccc(CCCNCC2COc3ccccc3O2)cc1 (configuration not stated),"inconclusive: 89.1 µM [inhibitor, partial curve, poor fit]",–
Cc1cccc(/C=N\Nc2cn[nH]c(=O)c2Cl)c1,"inconclusive: 89.1 µM [inhibitor, partial curve, poor fit]",–
O=C(O)c1ccc(NC(CSCc2ccc(F)cc2)C(=O)O)c([N+](=O)[O-])c1 (configuration not stated),–,inactive: 2%
COc1cc2c(NC3CCN(C(C)C)CC3)nc(N3CCCN(C)CC3)nc2cc1OCCCN(C)C,active: 31.6 µM,–
COc1cc2nc(N(C)C)nc(N)c2cc1OC,"inconclusive: 56.2 µM [inhibitor, partial curve]",–
Cc1ccc2c(c1)-c1c(cnn1CC(=O)N(Cc1ccco1)C1CCCCC1)CO2,"inconclusive: 79.4 µM [inhibitor, partial curve, poor fit]",–
CCC1Sc2ccc(S(=O)(=O)Nc3cc(OC)cc(OC)c3)cc2NC1=O (configuration not stated),–,inactive: 8.71%
CC(=O)Nc1sc(N/N=C\c2ccccc2)nc1-c1cccs1,–,inactive: 1.84%
CN(C)c1ccc(/C=C/c2cc3ccccc3cn2)cc1,"inconclusive: 50.1 µM [inhibitor, partial curve]",–
O=C(O)c1ccc(NC(=O)c2ccccc2NC(=O)c2cccc(F)c2)cc1,–,inactive: -7.68%
COc1ccc(S(=O)(=O)Nc2ccc(F)cc2)cc1N(C)S(=O)(=O)c1ccc(Cl)cc1,–,inactive: -4.52%
CN(C)c1ccc(/C=C/c2cc3ccccc3c[n+]2C)cc1,"inconclusive: 56.2 µM [inhibitor, partial curve, poor fit]",–
CC(C)c1cc2c(c(O)c1O)[C@@]13CCCC(C)(C)C1CC2OC3=O (some centres not stated),"inconclusive: 89.1 µM [inhibitor, single point]",–
CCOC(=O)C1CN(S(=O)(=O)c2cccc(C(F)(F)F)c2)c2cc(CC(=O)OC)ccc2O1 (configuration not stated),–,inactive: -5.14%
NCCCC[C@@H]1NC(=O)c2cc([N+](=O)[O-])cc(I)c2SC[C@@H](C(N)=O)NC(=O)[C@H](Cc2ccc(O)cc2)NC1=O,"inconclusive: 50.1 µM [inhibitor, partial curve]",–

SMILES,Potency,"activity change, negative = inhibition"
COc1ccc(-n2cc(CN[C@H]3CCCCNC3=O)c(-c3cccc(F)c3)n2)cc1,"inconclusive: 89.1 µM [inhibitor, single point]",–
COc1cc(OC)c(OC)cc1/C=C1\Oc2cc(OCC(=O)N3Cc4ccccc4C[C@H]3C(=O)O)ccc2C1=O,"inconclusive: 17.8 µM [inhibitor, full curve, poor fit]",–
Cc1ccc(/C=C2\S/C(=N/S(=O)(=O)c3cccs3)NC2=O)cc1,"inconclusive: 70.8 µM [inhibitor, single point]",–
Cc1ccc(-c2nc(C(=O)NC3CCCCCC3)no2)cc1,"inconclusive: 56.2 µM [inhibitor, partial curve, poor fit]",–
CCOC(=O)c1ccc(/C=C2/C=C(c3ccccc3)N(c3ccc(Cl)c(C(=O)O)c3)C2=O)cc1,–,inactive: -21.7%
O=C(c1ccc(Cl)c(Cl)c1)N1CCC(=O)N(C(COCc2cccc(C(F)(F)F)c2)Cc2ccccc2)CC1 (configuration not stated),"inconclusive: 50.1 µM [inhibitor, partial curve, poor fit]",–
CC1=NOC(=O)/C1=C/c1ccc2c(c1)OCO2,–,inactive: -12.1%
CCOc1cc2c(C#N)c(N3CCNCC3)nc(N)c2c(N)n1,"inconclusive: 50.1 µM [inhibitor, partial curve, poor fit]",–
COc1ccc2c(c1)Cc1sc(NC(=O)c3ccc(Cl)cc3)nc1-2,"inconclusive: 17.8 µM [inhibitor, single point]",–
Nn1c(SCC(=O)NC2CCCCC2)nnc1C1CC1,–,inactive: -1.33%
O=C1/C(=C/c2ccc3c(c2)OCO3)Oc2cc(OCC(=O)N3CC(O)C[C@H]3C(=O)O)ccc21 (some centres not stated),"inconclusive: 89.1 µM [inhibitor, single point]",–
Oc1ccc(NCc2ccccc2OCc2ccccc2Cl)cc1,"inconclusive: 7.94 µM [inhibitor, partial curve, poor fit]",–
Cc1ccc(NC(=S)NCCSc2ccc(Cl)cc2)c(C)c1,"inconclusive: 50.1 µM [inhibitor, partial curve, poor fit]",–
Cc1cc(Nc2ccc(Cl)cc2)n2cnnc2n1,–,inactive: -10.6%
CN(C)S(=O)(=O)c1ccc(NC(=O)Cc2ccc(S(=O)(=O)N3CCOCC3)s2)cc1,–,inactive: 9.66%
O=C(NNc1c2ccccc2nc2ccccc12)c1ccc(O)cc1O,"inconclusive: 70.8 µM [inhibitor, partial curve]",–
Cc1c(C(=O)O)sc2nc(/C=C/c3ccccc3OC(F)F)[nH]c(=O)c12,"inconclusive: 56.2 µM [inhibitor, partial curve, poor fit]",–
N#C/C(=C\c1c(Oc2ccc(F)cc2)nc2ccccn2c1=O)c1nc2ccccc2s1,"inconclusive: 28.2 µM [inhibitor, partial curve]",–
CC(=O)N[C@@H](CC(=O)N[C@H](CCC(=O)O)C(=O)O)C(=O)O,–,inactive: 16.9%
CCn1c(=O)cc(O)c2ccccc21,"inconclusive: 35.5 µM [inhibitor, partial curve, poor fit]",–
Cn1c(-c2ccc3nc(N)sc3c2)nc2cc(N)ccc21,active: 56.2 µM,–
Cc1cc(C(F)F)n2nc(C(=O)Nc3sc4c(c3C(N)=O)CCC4)nc2n1,"inconclusive: 89.1 µM [inhibitor, single point]",–
O=C(CCN1C(=O)/C(=C/c2cccs2)SC1=S)Nc1ccc(C(=O)O)cc1,"inconclusive: 39.8 µM [inhibitor, full curve]",–

SMILES,Potency,"activity change, negative = inhibition"
CC1(C)CCC2=C(O1)c1ccccc1C(=O)C2=O,"inconclusive: 3.55 µM [inhibitor, partial curve, poor fit] and inconclusive: 21.2 µM [inhibitor, partial curve, poor fit]",–
COc1ccc(-c2nnc(SCC(=O)Nc3ccc(C(=O)O)cc3)n2-c2ccc(Cl)cc2)cc1,–,inactive: 1.59%
O=C(Cc1ccc(Br)cc1)NC1CCCc2ccccc21 (configuration not stated),–,inactive: 6.61%
CCN(CC)C(=O)N1CCN(/[N+]([O-])=N/Oc2ccc([N+](=O)[O-])cc2[N+](=O)[O-])CC1,"inconclusive: 17.8 µM [inhibitor, single point]",–
N=C1/C(=C\c2coc3ccc(O)cc3c2=O)C(=O)N=C2SC=CN12,active: 50.1 µM,–
Cc1ccc(C2CC2c2n[nH]c(=S)n2-c2cccc(C)c2)cc1 (configuration not stated),–,inactive: -11%
Cc1sc2nc(COC(=O)CNC(=O)c3ccc(C(C)(C)C)cc3)[nH]c(=O)c2c1C,"inconclusive: 89.1 µM [inhibitor, partial curve, poor fit]",–
CCOc1ccccc1NC(=O)c1cc2ccccc2oc1=O,–,inactive: -3.17%
c1cc2c(cc1C1=NNC(=NC3CC3)SC1)OCCO2,–,inactive: 14%
O=C(Cc1ccc(-n2cccc2)cc1)NCc1cccs1,–,inactive: -1.5%
O=C1C(Br)=Cc2cccc3cccc1c23,"inconclusive: 50.1 µM [inhibitor, partial curve, poor fit]",–
CCCC1Nc2ccc(C(=O)O)cc2C2C=CCC12 (configuration not stated),"inconclusive: 50.1 µM [inhibitor, partial curve]",–
COc1ccccc1OCCOc1ccc(/C=C2/C(=N)N3OC(C)=CC3=NC2=O)cc1OC,–,inactive: -7.95%
CC(Oc1ccc(F)cc1)C(=O)Nc1cccc(-c2nn[nH]n2)c1 (configuration not stated),–,inactive: -12.8%
COc1ccc2nc(C)cc(N/N=C/c3cccc(OC)c3O)c2c1,active: 14.1 µM,–
CCC1(C)N([O-])C(C)=C(c2ccccc2)[N+]1=O (configuration not stated),–,inactive: -1.61%
COc1ccc(/C=C2/Sc3ccc(C(=O)NCCCN4CCOCC4)cc3NC2=O)cc1OC,"inconclusive: 50.1 µM [inhibitor, partial curve, poor fit]",–
CCOc1ccc(N2C(=O)CS/C2=C(\C(Cl)=C(Cl)Cl)[N+](=O)[O-])cc1,"inconclusive: 50.1 µM [inhibitor, partial curve, poor fit]",–
COc1cccc2sc3ccc(NCc4ccc5c(c4)OCO5)cc3c(=O)c12,"inconclusive: 56.2 µM [inhibitor, partial curve, poor fit]",–
CCN(CC)c1ccc2cc(C(N)=O)/c(=N\NC(=O)c3ccncc3)oc2c1,"inconclusive: 14.1 µM [inhibitor, full curve, poor fit]",–
O=C(Cc1ccccc1)Nc1nc(-c2cccs2)cs1,"inconclusive: 50.1 µM [inhibitor, partial curve, poor fit]",–
